# This is one part of the list. At the low end of the ranking the order means little.
# Target: SIX1 homeodomain (reference allele) (UniProt Q15475)
# Test: universal protein binding microarray
# Settings: Universal all-10-mer PBM (8x60K, AMADID 030236), 300 nM GST-tagged protein, Alexa Fluor 488 anti-GST; buffer, salt, pH and temperature not stated; high values mean tight binding; most listed sequences are background and not binding sites; double strand, one strand shown
row,Sequence,binding signal [E-score]
1,GAGCGGCA,-0.204
2,TACACCGA,0.361
3,AAGGCTGG,-0.323
4,CCGAAGTC,-0.279
5,CCGCGAGA,0.104
6,AGAAGTGC,-0.113
7,AAGGGGCG,-0.0747
8,ACCTCGGA,0.119
9,ACGGACTC,-0.184
10,GGATGCTA,-0.0387
11,ACCCATCG,0.241
12,TTATAGAA,-0.0775
13,ATTACAGG,-0.176
14,ACAAGACA,-0.0355
15,ATTCCCAC,0.0338
16,AGACGGCT,0.011
17,CAGGTTTA,0.0814
18,CGGGTTGA,0.116
19,CCCTCTGA,0.0996
20,AGTTCCAC,-0.0463
21,GCTTAGCA,-0.319
22,GCACAGGA,-0.0908
23,ATCAGGGC,0.178
24,CGTTCCTC,-0.238
25,ATGGCGAC,-0.201

row,Sequence,binding signal [E-score]
1,AACCCCGG,0.0849
2,TCCTCCAA,0.129
3,ACTGCTAA,-0.33
4,CAAACTTG,-0.105
5,TGAGCGCA,-0.18
6,CAAATCTA,-0.0634
7,ACATGTAG,0.0948
8,AGTAGTTA,-0.0767
9,CTACTTCA,-0.091
10,CACGGGGA,0.168
11,CGCCTAAA,-0.0284
12,ATAACTGG,0.0297
13,AACCCCGC,0.0672
14,CTTGAGAC,0.129
15,TCAGCCAA,-0.178
16,GAGGAGCA,-0.16
17,ACACCGTG,0.277
18,CAAAGGAG,-0.127
19,TGGAGCAA,-0.19
20,TGTGTTAA,-0.183
21,CGCACTAG,-0.154
22,TGTCAGAA,-0.0102
23,AGGCATTC,-0.0827
24,TATGTAAA,0.0129
25,CCCGGCCA,-0.0489

row,Sequence,binding signal [E-score]
1,TGAGTACA,-0.0445
2,ACGCGATG,0.121
3,GAGCTGCA,-0.152
4,CCCCCCAC,-0.0566
5,AGGGCCCC,-0.171
6,AAGTACTT,-0.234
7,TGTGGAAA,-0.156
8,ACCAGACA,-0.105
9,CTTACTGC,-0.0723
10,CGGAGACG,0.216
11,CATTTACG,-0.0412
12,AGGAGCTG,-0.0827
13,CCCGGAGG,-0.0239
14,CATTCCAA,-0.0612
15,TAGAAATA,-0.0582
16,AGAGCGGG,-0.151
17,ATACGGCG,0.327
18,ACACTGAA,0.0565
19,ACGGACCA,0.0216
20,CTCTCCAG,-0.0247
21,GCCAGGTA,0.0415
22,GATGGATA,0.377
23,CGCTATAA,-0.0427
24,CCTGATAG,0.266
25,GTTGCCAA,-0.149

row,Sequence,binding signal [E-score]
1,GGGTCGAA,0.115
2,CGTAGGGC,-0.0481
3,ATGCTAAG,-0.108
4,AACGAGTT,-0.17
5,GAAATAGC,-0.107
6,AAGCGGGA,-0.0613
7,ACAGGTTG,-0.2
8,AACCAACG,-0.151
9,AGGGGCTA,0.116
10,TCGAAGAA,-0.0899
11,GCCTACGA,-0.0359
12,ATACCGGG,0.399
13,CATTACGA,0.0639
14,GAGTTGAC,-0.195
15,CCGCTGCG,-0.099
16,CCAAGCCA,-0.0313
17,CACACTAA,0.0501
18,CAGGCCAC,-0.311
19,AATACCAG,0.306
20,AACTGATT,-0.138
21,GGAGGTGA,0.0897
22,GAGGCGTA,0.0973
23,CCACGCCA,-0.0842
24,CCATTACG,-0.0682
25,CAACGCTG,-0.132

row,Sequence,binding signal [E-score]
1,ACTTTGCT,-0.194
2,AAATGAAG,-0.0908
3,AGCACCAG,-0.204
4,CCGCGTGA,-0.0349
5,ACGGAAAA,-0.267
6,GATGCAGA,0.101
7,CTCCGTGA,0.0929
8,CGGTGGGC,-0.242
9,AATTCCTG,-0.252
10,ATCAATTG,0.147
11,ATCGGATC,0.426
12,CGGACTCA,0.0767
13,CTGGGAGC,0.0203
14,GTGAGGCA,-0.176
15,GCTCCGGA,-0.0286
16,ACCACGCA,-0.0794
17,CACTCGAG,-0.0595
18,AAAGTGAA,-0.0804
19,AGGTGTCG,0.399
20,AAAGCGGT,-0.19
21,CCGTAGGC,-0.128
22,AGGGAGAC,0.13
23,ACCTGGGA,0.0671
24,CTTTGACA,-0.142
25,GTGCGTGA,-0.0269

row,Sequence,binding signal [E-score]
1,AAGTAAAC,-0.198
2,ATTATCAC,0.146
3,GACAAGAA,-0.167
4,AGTTCTGG,-0.0474
5,CGAAAGTA,-0.253
6,CATCTCGA,0.127
7,CGTGCTGA,-0.0285
8,AGTCTTGA,-0.256
9,CAAAAACG,-0.12
10,ATGTATGG,-0.126
11,ACGAGATG,0.151
12,GGTAAACA,-0.0614
13,AGGGCCTG,-0.315
14,TCCCATAA,-0.0475
15,CAAGTCGG,0.0151
16,CCTTAAGG,-0.00564
17,GACATATA,0.226
18,ACATCGCT,-0.184
19,ACGGCCAT,-0.0898
20,CGCTACAG,-0.115
21,CTCCATCA,0.157
22,ACCTGCCC,-0.127
23,CCGACAGA,0.195
24,GTAGGTGA,-0.0489
25,GCTTTTCC,-0.237

row,Sequence,binding signal [E-score]
1,CGTATAGA,0.28
2,CATCGCTA,-0.0699
3,ATTAGGAC,-0.00345
4,AGGAATAA,0.00961
5,ACACTCCT,-0.00542
6,GTAGTGCA,0.00679
7,ATCTTAGG,-0.0286
8,CGTCGGAC,-0.119
9,TCATTAGA,-0.0558
10,CGCAGAGC,-0.246
11,ACCTTCCT,-0.0566
12,ACGTAGAC,-0.183
13,AGGGTTAC,-0.109
14,ATCCTCGA,0.313
15,AGTTCACG,-0.208
16,GAAGCACC,-0.107
17,GACTGCAC,-0.222
18,AAAAGAGG,-0.128
19,AGGCCACG,-0.0865
20,GCTCACTA,-0.0428
21,CAAAAGCC,-0.227
22,ACAATGAT,0.137

# — publication PMC10668032
